Hit rate of the full screen: of about 39,000 compounds, about 220 (0.56%) showed activity. The list shows a part of the results.
System: Escherichia coli K-12 BW25113
Experiment: relative growth (OD600 normalised to plate interquartile mean) (fraction); higher = less growth inhibition, active = 0.2 or less
Settings: 50 µM; LB; incubation time: overnight (16-24 h)
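Also: static incubation at 37 °C against the wild-type strain, values averaged over two biological replicates.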

SMILES | relative growth
c1ccc(CNc2nn[nH]n2)cc1 | inactive: 0.97
C[C@@H]1CN([C@@H](C)CO)C(=O)c2cc(NS(=O)(=O)c3ccccc3)ccc2O[C@@H]1CN(C)Cc1ccncc1 | inactive: 0.998
COc1ccc(OC)c(S(=O)(=O)N2[C@@H]3CC[C@@H](C3)[C@H]2c2nc3cccc(OCc4ccc(F)cc4)c3[nH]2)c1 | inactive: 1.03
C[C@H]1CCCCO[C@H](CN(C)C(=O)Nc2ccc(C(F)(F)F)cc2)[C@@H](C)CN([C@@H](C)CO)C(=O)c2cc(NC(=O)C3CCCCC3)ccc2O1 | inactive: 1.02
C[C@@H]1CN([C@@H](C)CO)S(=O)(=O)c2ccc(C#Cc3ccncc3)cc2O[C@@H]1CN(C)C(=O)c1ccncc1 | inactive: 0.999
C[C@@H]1CN([C@H](C)CO)C(=O)c2cc(C#CC3CCCC3)cnc2O[C@@H]1CN(C)C(=O)Cc1ccccn1 | inactive: 1.03
C[C@@H]1CN([C@H](C)CO)S(=O)(=O)c2ccc(Br)cc2O[C@@H]1CN(C)C(=O)C1CCCCC1 | inactive: 1.03
C[C@@H]1CN([C@H](C)CO)C(=O)c2cc(NC(=O)Nc3ccccc3)ccc2O[C@@H](C)CCCCO[C@H]1CN(C)S(=O)(=O)c1ccccc1 | inactive: 0.93
Cc1noc(C)c1NC(=O)Nc1ccc2c(c1)CC(=O)N([C@@H](C)CO)C[C@@H](C)[C@@H](CN(C)S(=O)(=O)c1cccs1)O2 | inactive: 1.01
Cc1ccc(S(=O)(=O)N(C)C[C@H]2Oc3ccc(NC(=O)Cn4cnnn4)cc3CC(=O)N([C@@H](C)CO)C[C@H]2C)cc1 | inactive: 0.991
C[C@@H]1CN([C@H](C)CO)C(=O)CCCn2nncc2CO[C@H]1CN(C)C(=O)Nc1ccccc1C(F)(F)F | inactive: 0.988
Cc1ccccc1S(=O)(=O)N1C[C@H](O)COC[C@H]2O[C@H](CC(=O)NCc3ccccc3Cl)CC[C@@H]21 | inactive: 1.01
CCCc1ncc(C[n+]2ccccc2C)c(N)n1.[Cl-] | inactive: 0.917
COCC#Cc1ccc2c(c1)O[C@@H](CN(C)C(=O)Nc1ccccc1F)[C@H](C)CN([C@@H](C)CO)S2(=O)=O | inactive: 0.992
COc1ccc(NC(=O)N(C)C[C@H]2Oc3ccc(NS(=O)(=O)c4c(C)noc4C)cc3C(=O)N([C@@H](C)CO)C[C@@H]2C)cc1 | inactive: 1.01
CCNC(=O)C[C@@H]1CC[C@H]2[C@@H](COC[C@@H](O)CN2S(=O)(=O)c2ccc(Oc3ccccc3)cc2)O1 | inactive: 1.01
O=C(COc1ccc(S(=O)(=O)N2CCOCC2)cc1)N1CCOCC1 | inactive: 1.04
N[C@@H](Cc1ccc(Cl)cc1)C(=O)O | inactive: 1
COc1ccc(NC(=O)Nc2cccc3c2O[C@@H](CN(C)Cc2ccc(C(F)(F)F)cc2)[C@@H](C)CN([C@@H](C)CO)C3=O)cc1 | inactive: 0.986
CC1CC2C3CCC4=CC(=O)C=CC4(C)C3(F)C(O)CC2(C)C1(O)C(=O)COP(=O)([O-])[O-].[Na+].[Na+] (configuration not stated) | inactive: 1.01
C[C@@H]1CN([C@@H](C)CO)C(=O)Cc2cc(NC(=O)CCN3CCOCC3)ccc2O[C@@H]1CN(C)Cc1ccncc1 | inactive: 1.01

SMILES | relative growth
COc1ccc(S(=O)(=O)Nc2ccc3c(c2)C(=O)N([C@H](C)CO)C[C@@H](C)[C@@H](CN(C)S(=O)(=O)c2c(C)noc2C)O3)cc1 | inactive: 0.996
C[C@H](CO)N1C[C@H](C)[C@H](CN(C)C(=O)Nc2ccc(F)cc2)Oc2ccc(NS(C)(=O)=O)cc2CC1=O | inactive: 0.967
C[C@@H]1CCCCO[C@H](CN(C)S(=O)(=O)c2cccs2)[C@H](C)CN([C@@H](C)CO)C(=O)c2cc(NC(=O)Nc3ccc4c(c3)OCO4)ccc2O1 | inactive: 1.02
C[C@@H]1CCCCO[C@H](CN(C)Cc2ccncc2)[C@@H](C)CN([C@@H](C)CO)C(=O)c2cc(NC(=O)Nc3ccc4c(c3)OCO4)ccc2O1 | inactive: 1.01
NCC[C@H]1CC[C@H](NC(=O)C2CCCCC2)[C@@H](CO)O1 | inactive: 0.988
CC(=O)N1[C@@H]2Cn3c(ccc(-c4ccccc4)c3=O)[C@H]1[C@@H](C(=O)N1CCN(C)CC1)[C@@H]2CO | inactive: 0.999
C[C@@H]1CN([C@H](C)CO)C(=O)c2cc(C#CC(C)(C)O)cnc2O[C@@H]1CN(C)C(=O)CN(C)C | inactive: 1.01
O=C(N/N=C/c1ccc(B(O)O)cc1)c1ccccn1 | inactive: 0.981
CC(C)NC(=O)N(C)C[C@@H]1Oc2ccc(NC(=O)CCC(F)(F)F)cc2C(=O)N([C@H](C)CO)C[C@H]1C | inactive: 0.992
C[C@@H]1CN([C@H](C)CO)C(=O)c2cc(NS(=O)(=O)c3ccccc3)ccc2O[C@@H](C)CCCCO[C@@H]1CN(C)CC1CCCCC1 | inactive: 0.961
CCCC(=O)O | inactive: 1.02
O=C1CN2CCN3CCN([C@@H](CO)[C@@H](O)CO)CCN(CC2)CC(=O)[O][Gd]([O]1)[O]C(=O)C3 | inactive: 0.988
C[C@@H]1CN([C@H](C)CO)C(=O)Cc2cc(NS(=O)(=O)c3cccs3)ccc2O[C@H]1CN(C)S(C)(=O)=O | inactive: 1
C[C@@H]1CN([C@H](C)CO)C(=O)c2cccc(NC(=O)Nc3ccc(C(F)(F)F)cc3)c2O[C@@H]1CN(C)Cc1ccc(Oc2ccccc2)cc1 | inactive: 1.06
CN(C)[C@H]1CS(=O)(=O)C[C@@H]1N(C)C | inactive: 1.05
C[C@H]1CN([C@@H](C)CO)C(=O)c2cccc(NS(=O)(=O)c3ccc(Cl)cc3)c2O[C@H]1CN(C)Cc1ccc(Cl)c(Cl)c1 | inactive: 0.991
C[C@H](CO)N1C[C@H](C)[C@@H](CN(C)Cc2ccc(C(F)(F)F)cc2)OCCCC[C@H](C)Oc2ccc(NC(=O)CCC(F)(F)F)cc2C1=O | inactive: 1
C[C@@H]1CN([C@@H](C)CO)C(=O)c2cc(NS(=O)(=O)c3ccc(F)cc3)ccc2O[C@@H]1CN(C)Cc1ccc(Cl)c(Cl)c1 | inactive: 0.987
O=C(C[C@H]1C[C@H]2c3cc(NC(=O)Nc4ccc(C(F)(F)F)cc4)ccc3O[C@H]2[C@H](CO)O1)NCc1cc(F)ccc1F | inactive: 1
COCC#Cc1cnc2c(c1)C(=O)N([C@@H](C)CO)C[C@@H](C)[C@H](CN(C)C(C)=O)O2 | inactive: 0.976
CN1C(=O)c2cc(NS(=O)(=O)c3cccc(F)c3)ccc2OC[C@H]2O[C@H](CC(=O)NCCN3CCCCC3)CC[C@@H]21 | inactive: 0.978

SMILES | relative growth
C[C@H](CO)N1C[C@H](C)[C@@H](CN(C)Cc2ccc(C(F)(F)F)cc2)OCCCC[C@H](C)Oc2ccc(NC(=O)NC3CCCCC3)cc2C1=O | inactive: 1.01
O=C[C@H](O)[C@@H](O)[C@H](O)[C@H](O)CO | inactive: 0.98
OCC1OC(OC2C(CO)OC(O)(CO)C2O)C(O)C(O)C1O (configuration not stated) | inactive: 1.03
C[C@H](CO)N1C[C@H](C)[C@H](CN(C)C(=O)CCC(F)(F)F)OCCCC[C@H](C)Oc2ccc(NS(=O)(=O)c3ccc(F)cc3)cc2C1=O | inactive: 1.03
C[C@H](CO)N1C[C@H](C)[C@@H](CN(C)S(=O)(=O)c2ccc(F)cc2)Oc2ccc(NS(=O)(=O)c3ccc(F)cc3)cc2C1=O | inactive: 1.01
CCCC#Cc1ccc2c(c1)O[C@H](CN(C)S(=O)(=O)c1cccc(F)c1)[C@H](C)CN([C@H](C)CO)S2(=O)=O | inactive: 1.01
CO[C@@H]1CN(C)C(=O)c2ccc(NS(C)(=O)=O)cc2OC[C@H](C)N(C(=O)c2ccc3c(c2)OCO3)C[C@H]1C | inactive: 0.972
CC(C)NC(=O)N(C)C[C@@H]1Oc2c(NC(=O)Nc3ccc4c(c3)OCO4)cccc2C(=O)N([C@@H](C)CO)C[C@H]1C | inactive: 0.991
O=C1C=C2CC3(O)COc4c(ccc(O)c4O)C3=C2C=C1O (configuration not stated) | inactive: 1.1
COc1ccc(CN(C)C[C@H]2OCCCC[C@@H](C)Oc3ccc(NS(=O)(=O)c4ccc(OC)cc4)cc3C(=O)N([C@@H](C)CO)C[C@H]2C)cc1 | inactive: 1
COc1ccc(C[C@@H](N)C(=O)N[C@@H]2[C@@H](O)[C@@H](n3cnc4c(N(C)C)ncnc43)O[C@@H]2CO)cc1 | inactive: 0.467
CCOC(=O)/C=C1\SC(=O)NC1=O | inactive: 1
COc1ccc(S(=O)(=O)N(C)C[C@@H]2OCCCC[C@@H](C)Oc3ccc(NC(=O)Nc4ccc5c(c4)OCO5)cc3C(=O)N([C@@H](C)CO)C[C@@H]2C)cc1 | inactive: 1.04
CC(C)NC(=O)Nc1ccc2c(c1)CC(=O)N([C@@H](C)CO)C[C@@H](C)[C@H](CN(C)S(=O)(=O)c1cccs1)O2 | inactive: 1.02
CNC[C@H]1OCCCC[C@@H](C)Oc2ccc(NC(=O)Nc3cccc4ccccc34)cc2C(=O)N([C@@H](C)CO)C[C@H]1C | inactive: 0.999
C[C@@H]1CCCCO[C@@H](CN(C)C(=O)Cc2ccccc2)[C@@H](C)CN([C@@H](C)CO)C(=O)c2cc(NC(=O)NC3CCCCC3)ccc2O1 | inactive: 1.01
CCS(=O)(=O)N1C[C@]2(C1)CN([C@@H](CO)c1[nH]c3cc(ccc3c12)OC)S(=O)(=O)c1cn(cn1)C | inactive: 0.981
Cl.N[C@H](Cc1ccccc1)C(=O)O | inactive: 0.886
Cc1ccc(S(=O)(=O)N(C)C[C@@H]2Oc3ccc(NS(=O)(=O)c4cccs4)cc3CC(=O)N([C@H](C)CO)C[C@H]2C)cc1 | inactive: 1
C[C@@H]1CN([C@H](C)CO)S(=O)(=O)c2ccc(C#C[C@@H](C)O)cc2O[C@@H]1CN(C)C(=O)CN(C)C | inactive: 0.999
